Data published in paper PMC5065627.
These are yes or no findings as the source states them, for the method shown. For some assays here: In cells and extracts the contact can be indirect. Some results given as binding are weak or reduced against the parent protein; the word gives no strength. For some assays here: Tags and fused reporters may be left off the sequences shown.

Chains of the proteins cited; added tags and fusions are not shown.
UniProt Q9FTA2: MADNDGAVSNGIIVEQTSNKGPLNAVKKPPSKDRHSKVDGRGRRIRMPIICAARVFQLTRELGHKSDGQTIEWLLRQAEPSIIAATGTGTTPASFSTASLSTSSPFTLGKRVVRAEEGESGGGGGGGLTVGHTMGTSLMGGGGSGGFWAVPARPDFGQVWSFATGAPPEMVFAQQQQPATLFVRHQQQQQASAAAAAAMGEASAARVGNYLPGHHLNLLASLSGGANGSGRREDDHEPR
UniProt Q9LSD5: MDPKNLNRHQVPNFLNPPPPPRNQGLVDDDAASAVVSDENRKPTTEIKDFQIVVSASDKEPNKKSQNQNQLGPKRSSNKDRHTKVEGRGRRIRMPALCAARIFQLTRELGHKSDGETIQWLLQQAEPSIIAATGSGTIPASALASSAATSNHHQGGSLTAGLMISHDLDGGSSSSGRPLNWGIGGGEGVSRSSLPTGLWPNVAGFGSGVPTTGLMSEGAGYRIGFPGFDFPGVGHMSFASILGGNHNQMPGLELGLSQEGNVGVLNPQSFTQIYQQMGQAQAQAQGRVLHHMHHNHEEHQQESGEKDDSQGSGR
UniProt Q9C7G4: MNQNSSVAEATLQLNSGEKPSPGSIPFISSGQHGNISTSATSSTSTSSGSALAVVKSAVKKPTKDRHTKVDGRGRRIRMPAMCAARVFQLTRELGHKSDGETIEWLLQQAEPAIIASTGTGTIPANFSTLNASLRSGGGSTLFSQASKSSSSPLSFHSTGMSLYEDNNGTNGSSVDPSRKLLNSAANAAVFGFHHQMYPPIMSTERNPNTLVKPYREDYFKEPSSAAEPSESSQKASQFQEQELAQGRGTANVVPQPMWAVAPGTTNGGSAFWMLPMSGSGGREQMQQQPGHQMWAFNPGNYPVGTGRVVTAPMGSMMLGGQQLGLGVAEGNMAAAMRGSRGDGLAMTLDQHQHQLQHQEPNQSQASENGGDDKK
UniProt Q9FMX2: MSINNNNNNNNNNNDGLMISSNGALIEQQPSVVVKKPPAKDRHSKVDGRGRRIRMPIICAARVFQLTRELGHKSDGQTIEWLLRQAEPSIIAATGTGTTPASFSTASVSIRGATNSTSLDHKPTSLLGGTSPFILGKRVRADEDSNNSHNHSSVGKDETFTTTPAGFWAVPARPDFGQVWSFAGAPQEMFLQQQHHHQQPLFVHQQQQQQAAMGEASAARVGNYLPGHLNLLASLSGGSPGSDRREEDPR
UniProt Q9C518: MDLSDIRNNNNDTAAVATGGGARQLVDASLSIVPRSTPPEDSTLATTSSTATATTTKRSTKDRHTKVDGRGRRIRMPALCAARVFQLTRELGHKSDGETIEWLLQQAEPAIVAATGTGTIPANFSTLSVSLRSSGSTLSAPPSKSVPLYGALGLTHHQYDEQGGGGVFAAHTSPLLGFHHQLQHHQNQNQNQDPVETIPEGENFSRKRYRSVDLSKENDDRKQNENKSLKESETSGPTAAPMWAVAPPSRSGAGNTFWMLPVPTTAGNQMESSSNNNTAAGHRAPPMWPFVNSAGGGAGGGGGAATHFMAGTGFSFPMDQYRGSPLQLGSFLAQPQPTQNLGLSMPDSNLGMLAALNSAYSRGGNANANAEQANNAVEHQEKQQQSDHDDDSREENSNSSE
UniProt O64647: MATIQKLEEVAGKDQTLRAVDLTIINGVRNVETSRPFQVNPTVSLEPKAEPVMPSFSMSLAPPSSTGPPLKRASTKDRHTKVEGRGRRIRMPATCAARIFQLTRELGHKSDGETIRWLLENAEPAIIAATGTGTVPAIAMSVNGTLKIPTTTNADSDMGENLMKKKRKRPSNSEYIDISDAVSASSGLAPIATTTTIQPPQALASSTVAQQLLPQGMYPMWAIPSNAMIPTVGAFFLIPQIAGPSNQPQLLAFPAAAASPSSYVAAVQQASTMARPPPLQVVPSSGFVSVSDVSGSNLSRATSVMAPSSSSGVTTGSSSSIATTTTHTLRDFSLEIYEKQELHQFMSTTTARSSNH
UniProt Q93Z00: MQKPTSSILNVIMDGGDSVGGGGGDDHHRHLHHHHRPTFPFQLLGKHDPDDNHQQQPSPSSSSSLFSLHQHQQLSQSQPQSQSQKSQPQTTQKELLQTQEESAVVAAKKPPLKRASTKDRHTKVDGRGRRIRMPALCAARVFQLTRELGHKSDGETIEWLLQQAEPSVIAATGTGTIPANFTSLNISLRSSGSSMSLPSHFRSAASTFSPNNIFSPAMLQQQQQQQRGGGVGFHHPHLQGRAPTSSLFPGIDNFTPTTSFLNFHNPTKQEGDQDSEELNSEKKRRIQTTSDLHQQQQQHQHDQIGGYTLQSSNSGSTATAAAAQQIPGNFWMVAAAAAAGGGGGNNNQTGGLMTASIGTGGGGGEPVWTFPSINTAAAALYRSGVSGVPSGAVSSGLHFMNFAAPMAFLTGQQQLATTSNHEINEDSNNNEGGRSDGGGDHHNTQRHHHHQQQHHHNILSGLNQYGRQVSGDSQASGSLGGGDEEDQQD
UniProt Q9LQF0: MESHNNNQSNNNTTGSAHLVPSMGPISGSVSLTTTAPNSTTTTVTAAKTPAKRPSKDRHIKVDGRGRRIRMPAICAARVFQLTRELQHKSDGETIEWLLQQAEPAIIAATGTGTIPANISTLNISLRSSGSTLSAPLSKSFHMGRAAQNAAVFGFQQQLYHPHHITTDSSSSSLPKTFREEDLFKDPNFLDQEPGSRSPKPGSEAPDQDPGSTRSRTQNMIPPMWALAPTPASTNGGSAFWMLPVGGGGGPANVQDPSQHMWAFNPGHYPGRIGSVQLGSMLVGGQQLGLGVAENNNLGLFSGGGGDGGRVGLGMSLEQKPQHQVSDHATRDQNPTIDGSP

Columns and labels:
[1] = target: T1, LIGHT-REGULATED WD1 (LWD1), yeast two-hybrid bait (Arabidopsis thaliana) (UniProt Q9LPV9); assay: two-hybrid; library screen: LWD1 as bait against a prey library of about 1,400 Arabidopsis full-length transcription factors; positive clones sequenced
T1 sequence: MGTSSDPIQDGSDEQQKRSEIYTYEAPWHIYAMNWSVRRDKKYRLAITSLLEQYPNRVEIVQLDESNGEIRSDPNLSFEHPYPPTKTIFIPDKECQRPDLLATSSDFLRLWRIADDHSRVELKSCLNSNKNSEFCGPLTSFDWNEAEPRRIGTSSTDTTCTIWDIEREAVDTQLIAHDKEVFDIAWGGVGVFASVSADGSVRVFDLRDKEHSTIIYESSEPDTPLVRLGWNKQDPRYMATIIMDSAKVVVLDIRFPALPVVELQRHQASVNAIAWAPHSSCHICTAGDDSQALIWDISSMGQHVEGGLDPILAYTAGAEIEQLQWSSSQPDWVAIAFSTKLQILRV

[2] = target: T2, NLUC2-LWD1 (luciferase complementation imaging) (Arabidopsis thaliana) (UniProt Q9LPV9); assay: split reporter; luciferase complementation imaging: NLUC2 fusions of LWD1 or ΔLWD1 with CLUC2 fusions of TCP20 or TCP22, under native promoters, in Arabidopsis seedlings (AGROBEST)
T2 sequence: T1 sequence

[3] = target: T3, NLUC2-ΔLWD1 (luciferase complementation imaging), truncated LWD1 lacking amino acids 236–290 (Arabidopsis thaliana) (UniProt Q9LPV9); assay: as above
T3 sequence: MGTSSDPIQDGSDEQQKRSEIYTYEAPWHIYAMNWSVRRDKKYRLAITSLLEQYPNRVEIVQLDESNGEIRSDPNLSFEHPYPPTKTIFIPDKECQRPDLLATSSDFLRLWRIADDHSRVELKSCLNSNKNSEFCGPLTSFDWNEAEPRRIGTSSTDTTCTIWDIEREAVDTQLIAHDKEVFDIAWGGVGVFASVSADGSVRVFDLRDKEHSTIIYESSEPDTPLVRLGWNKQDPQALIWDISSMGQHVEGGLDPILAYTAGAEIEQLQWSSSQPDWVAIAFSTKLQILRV

[4] = target: T4, Venus N173-fused LWD1 (BiFC) (Arabidopsis thaliana) (UniProt Q9LPV9); assay: split reporter; BiFC: Venus N173 fusions of LWD1 or ΔLWD1 co-expressed with SCFP3A C155 fusions of TCPs in Arabidopsis seedlings (AGROBEST); confocal microscopy three days after infection
T4 sequence: T1 sequence

[5] = target: T1, LIGHT-REGULATED WD1 (LWD1), yeast two-hybrid bait (Arabidopsis thaliana); assay: two-hybrid; pairwise, GAL4-based system (…, Clontech): LWD1 or LWD2 in pDBLeu as bait, TCPs in pEXP-AD502HA as prey; growth on SD-WLH with 3-AT (2 mM in Fig. 2a), reporter gene HIS3
[6] = target: T5, LIGHT-REGULATED WD2 (LWD2), yeast two-hybrid bait (Arabidopsis thaliana) (UniProt Q38960); assay: as above
T5 sequence: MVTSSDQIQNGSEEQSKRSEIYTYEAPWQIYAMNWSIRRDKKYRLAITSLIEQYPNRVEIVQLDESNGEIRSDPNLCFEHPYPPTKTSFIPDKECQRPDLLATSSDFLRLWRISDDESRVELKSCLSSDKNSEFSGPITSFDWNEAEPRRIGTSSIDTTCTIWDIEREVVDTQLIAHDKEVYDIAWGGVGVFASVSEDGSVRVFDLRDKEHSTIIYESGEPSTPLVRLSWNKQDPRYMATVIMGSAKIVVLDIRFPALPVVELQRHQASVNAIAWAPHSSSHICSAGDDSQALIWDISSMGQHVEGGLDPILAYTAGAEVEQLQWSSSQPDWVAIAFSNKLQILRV

binding [5]	binding [6]	also measured	Substance
		binding [1]: binds	CCA1 HIKING EXPEDITION (CHE), prey of the transcription factor library (from UniProt Q9FTA2 1-239)
		binding [2]: binds; binding [3]: no binding	CLUC2-TCP20 (luciferase complementation imaging) (from UniProt Q9LSD5 1-314)
		binding [2]: binds; binding [3]: no binding	CLUC2-TCP22 (luciferase complementation imaging) (from UniProt Q9C7G4 1-375)
		binding [4]: binds	SCFP3A C155-fused CHE (BiFC) (from UniProt Q9FTA2 1-239)
		binding [4]: binds	SCFP3A C155-fused TCP20 (BiFC) (from UniProt Q9LSD5 1-314)
		binding [4]: binds	SCFP3A C155-fused TCP22 (BiFC) (from UniProt Q9C7G4 1-375)
binds	binds		TCP7, prey in pEXP-AD502HA (from UniProt Q9FMX2 1-250)
binds	binds		TCP8, prey in pEXP-AD502HA (from UniProt Q9C518 1-401)
binds	binds		TCP9, prey in pEXP-AD502HA (from UniProt O64647 1-356)
binds	binds		TCP14, prey in pEXP-AD502HA (from UniProt Q93Z00 1-489)
binds	binds		TCP15, prey in pEXP-AD502HA (from UniProt Q9C9L2 1-325)
binds	binds		TCP23, prey in pEXP-AD502HA (from UniProt Q9LQF0 1-341)
binds	binds		TEOSINTE BRANCHED 1-CYCLOIDEA-PCF20 (TCP20), prey in pEXP-AD502HA (from UniProt Q9LSD5 1-314)
		binding [1]: binds	TEOSINTE BRANCHED 1-CYCLOIDEA-PCF20 (TCP20), prey of the transcription factor library (from UniProt Q9LSD5 1-314)
binds	binds		TEOSINTE BRANCHED 1-CYCLOIDEA-PCF22 (TCP22), prey in pEXP-AD502HA (from UniProt Q9C7G4 1-375)
		binding [1]: binds	TEOSINTE BRANCHED 1-CYCLOIDEA-PCF22 (TCP22), prey of the transcription factor library (from UniProt Q9C7G4 1-375)
